Measured values taken from PubChem BioAssay AID1347073 (National Center for Advancing Translational Sciences (NCATS), 2019).
Screen size: about 45,000 compounds; about 200 (0.44%) were called active. Another 7% or so got no clear call; they are omitted. Calls come from the whole dose curve; as a rule, active = well fitted activation curve with a large enough effect; inconclusive = small, poorly fitted or top-dose-only effect; inactive = no such curve, though single readings can be large or run the other way. The list shows a part of the results.

Experiment: qHTS of TDP-43 Inhibitors: NCGC Sytravon Library Screen; note: 0% is about no effect; nearly all actives have a fitted effect of over 55% in size
Settings: yeast TDP-43 toxicity rescue, BacTiter-Glo growth, 24 h; series mostly up to 46.1 µM; growth rescue (activation): at the top concentration
Summary of the method: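 TDP-43-expressing yeast, pregrown in raffinose, seeded at OD600 0.02 in galactose medium with compound for 24 hr at 30 deg C. Growth read by BacTiter-Glo luminescence, so rescue of toxicity appears as activation.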

SMILES | growth rescue (activation)
COCC(C)NC(C(=O)Nc1cccc(C(C)=O)c1)c1ccccc1 (stereo not drawn) | inactive: -1.63%
CC1CCCC(C)N1C(=O)COc1ccc(F)cc1 (stereo not drawn) | inactive: 17.5%
Fc1cccc(Cc2noc(CN3CCCN(C4Cc5ccccc5C4)CC3)n2)c1 | inactive: -2.64%
O=S(=O)(NC1CCCCC1Sc1ncccn1)c1ccccc1 (stereo not drawn) | inactive: 8.2%
CCNC(=S)Nc1cccc(S(=O)(=O)Nc2ccccc2OC)c1 | inactive: -33%
Cc1nc(NCCc2ccccc2)sc1C(=O)N(C)C | inactive: 15.4%
O=c1cc(O)nc(-c2ccc(Cl)cc2)s1 | inactive: -0.639%
COc1cc(/C=N/NC(=O)CNC(=O)c2cccs2)ccc1O | inactive: -1.7%
COc1cccc(O)c1CN1CCC(C(=O)Nc2ccc(-c3cccc(C)c3)cc2)CC1 | inactive: 16.2%
NC(=O)c1nnn(-c2ccccc2)c1N | inactive: -30.2%
Cc1c(NC(=S)NC(=O)c2ccc(-c3ccc(Cl)cc3)o2)cccc1C(=O)O | inactive: 8.53%
CCc1ccc(CN(C)CC(O)COc2cccc3ccccc23)cc1 (stereo not drawn) | inactive: -3.95%
CCCCN(C(=O)c1ccc(C#N)cc1)c1c(N)n(CCC)c(=O)[nH]c1=O | inactive: -7.31%
COc1ccc(NC(=O)Nc2cccc(F)c2)c(OC)c1 | inactive: -7.36%
CCc1ccc(NC(=O)C(=O)N/N=C(\C)CC(=O)NCCOC)cc1 | inactive: 15.3%
O=C(c1cc(-c2cccc(O)c2)on1)N1CCCC1 | inactive: -11.2%
CCOCCCNC(=O)CCc1ccc(-n2cnc3cccnc32)cc1 | inactive: -4.59%
COc1cc(/C=C/C(=O)NC(C)C2CC3CCC2C3)cc(OC)c1OC (stereo not drawn) | inactive: 10.1%
CCn1c2ccccc2c2nnc(SCC(=O)c3c(N)n(C)c(=O)n(C)c3=O)nc21 | inactive: 11.4%
CC(C)CNC(=O)c1nn(Cc2ccccc2)c(=O)c2ccccc12 | inactive: 6.21%
Nc1cc2c(cc1[N+](=O)[O-])OCO2 | inactive: 15.8%
COc1ccc(NC(=O)Nc2c[nH]c(=O)[nH]c2=O)cc1OC | inactive: -5.7%

SMILES | growth rescue (activation)
CSCCC(NC(=O)c1ccc([N+](=O)[O-])cc1Cl)C(=O)OCC(=O)NCCCc1ccccc1 (stereo not drawn) | inactive: -16%
CCOc1ccccc1-c1noc(CCC(=O)Nc2cccnc2)n1 | inactive: -3.4%
CC1(C(=O)NS(=O)(=O)c2ccccc2Cl)CCN1C(=O)CC(c1ccccc1)c1ccccc1 (stereo not drawn) | inactive: 6.36%
CN(CC(=O)Nc1ccc(F)cc1)C(=O)CN1C(=O)NC2(CCCCC2)C1=O | inactive: -3.01%
CCOC(=O)C(C)/C(C)=N/NC(=O)c1cc2ccccc2cc1O (stereo not drawn) | inactive: 43%
O=C(CN1CCN(S(=O)(=O)N2CCCCCC2)CC1)Nc1cc(Cl)ccc1Cl | inactive: 14.1%
CCc1ccccc1N1C(=O)CN(Cc2cc(OC)c(OC)c(OC)c2)C1=S | inactive: 11.8%
COc1ccc(CCN2CC(C(=O)Nc3cccc(C(C)=O)c3)CC2=O)cc1OC (stereo not drawn) | inactive: 4.79%
Cc1cc(C)nc(SCc2ccc(C(=O)N/N=C/c3cccc(O)c3O)cc2)n1 | inactive: -1.36%
Cc1ccc(NC(=O)NCCN2CCN(C(=O)Nc3ccc(C)cc3)CC2)cc1 | inactive: -3.51%
Cc1ccc(-c2cc(NC=O)c3ncc(-c4cccc(C(=O)N(C)C)c4)n3c2)cc1 | inactive: 16.5%
Cc1cc(CNC(=O)C2CCC(=O)N(Cc3cccc(C(F)(F)F)c3)C2)no1 (stereo not drawn) | inactive: 3.79%
O=[N+]([O-])c1ccc(N2CCN(S(=O)(=O)c3ccccc3)CC2)cc1N1CCc2ccccc2C1 | inactive: -0.186%
Cc1cccc(N2CCN(C(=O)C3CCN(S(=O)(=O)N4CCOCC4)CC3)CC2C)c1 (stereo not drawn) | inactive: 5.32%
CCOc1ccccc1C(=O)NCC(=O)NCC1CCCCC1 | inactive: -7.19%
COc1ccc(C(=O)OCC(=O)c2ccc3c(c2)NC(=O)CO3)cc1S(=O)(=O)N1CCOCC1 | inactive: 9.65%
COCc1nnc(NC(=O)c2ccccc2[N+](=O)[O-])s1 | inactive: 7.24%
O=c1oc(-c2cccc(S(=O)(=O)N3CCOCC3)c2)nc2ccccc12 | inactive: 3.69%
Cc1ccc(C(=O)N2CCN(C(=O)c3ccco3)CC2)cc1NC(=O)c1ccco1 | inactive: 5.41%
CC(=O)c1sc(NCc2ccc(C)cc2)nc1C | inactive: -7.06%
COc1cccc(CNc2nc(NCC3CC3)nc3ccsc23)c1 | inactive: 13.9%
NS(=O)(=O)c1cccc(NC(=O)COC(=O)CSCc2ccccc2)c1 | inactive: -0.997%

SMILES | growth rescue (activation)
COc1cc(/C=C/c2ccc3cccc(O)c3n2)cc(Cl)c1OC | inactive: 10.4%
O=C(CN1C(=O)CSc2ccc(S(=O)(=O)N3CCCCCC3)cc21)NCCc1ccccc1 | inactive: -2.94%
Cc1ccccc1OCCC(=O)OCC(=O)Nc1cc(S(=O)(=O)N2CCOCC2)ccc1Cl | inactive: 7.08%
CCCCC(=O)N(C)c1c(CC)nc2c(OCC(=O)c3ccc(F)cc3)cccn12 | inactive: 11.7%
Cc1ccc(S(=O)(=O)Nc2ccc(F)cc2)cc1C(=O)N1CCOCC1 | inactive: 6.18%
O=[N+]([O-])c1ccc(-c2csc3[n+]2CCS3)cc1 | inactive: -15.4%
c1ccc(CN2CCN(C3=Nc4cccc5cccc3c45)CC2)cc1 | inactive: 10.8%
COCCNC(=O)COc1ccc(N(C)S(=O)(=O)c2ccc3ccccc3c2)cc1 | inactive: 11.6%
CCC(OC(=O)c1nsc(Cl)c1Cl)C(=O)NCCc1ccccc1 (stereo not drawn) | inactive: 22.5%
CCn1ncc(C2=NOC(C(=O)Nc3cccc(O)c3)C2)c1C (stereo not drawn) | inactive: 8.37%
COc1ccc(/C=N/NC(=O)CCn2c3ccccc3c3ccccc32)cc1OC | inactive: -8.27%
O=C(c1ccccc1NS(=O)(=O)c1ccc(Br)cc1)N1CCOCC1 | inactive: -0.277%
COC(=O)c1nc(-c2ccccc2)oc1N1CCOCC1 | inactive: 14.5%
C=CCNC(=O)COC(=O)/C=C/c1cccs1 | inactive: -13.6%
COc1ccc(Nc2cc(C)c3ccccc3n2)cc1 | inactive: 12.7%
O=C(NC(=S)NC12CC3CC(CC(C3)C1)C2)c1ccc(F)cc1 | inactive: -4.37%
CCC(=O)c1ccc(-c2ccccc2)cc1 | inactive: 30.8%
O=C(COc1ccc([N+](=O)[O-])cc1)Nc1ccc(N2CCCC2)cc1 | inactive: 4.68%
CS(=O)(=O)Cc1ccc(C(=O)NC2CCN(Cc3ccccc3)C2)cc1 (stereo not drawn) | inactive: 13.1%
Cc1ccc(C)c(N2CCN(C(=O)c3cccn4c(=O)c5sccc5nc34)CC2)c1 | inactive: 20.1%
O=C1CCC(=O)N1c1ccc(S(=O)(=O)Nc2cccc(Br)c2)cc1 | inactive: 25.9%
CCOc1ccc(NC(=S)N2C3CCCC2CC(NC(=O)C2CC2)C3)cc1 (stereo not drawn) | inactive: -3.85%

SMILES | growth rescue (activation)
Cc1ccc2nc(-c3ccccc3F)c(Nc3ccc(Cl)cc3)n2c1 | inactive: 6.63%
c1cnc2c(OCc3cn4cccnc4n3)cccc2c1 | inactive: 4.3%
Cc1cc(C(=O)COC(=O)c2cnccn2)c(C)n1-c1ccc(Br)cc1 | inactive: 3.41%
O=C(NC(=S)Nc1ccccc1N1CCCC1)c1ccccc1[N+](=O)[O-] | inactive: 27.9%
O=C(O)CC(C(=O)O)c1cn(Cc2ccccc2)c2ccccc12 (stereo not drawn) | inactive: 19.1%
O=C(O)c1cccc(NC(=S)NC(=O)c2ccc(-c3ccccc3)cc2)c1 | inactive: -1.35%
O=C(NCc1nnc2n1CCCCC2)c1ccc(Cl)cc1Cl | inactive: 10.1%
CC/C(C)=N\NC(=O)CNC(=O)c1ccc(Cl)cc1Cl | inactive: 7.13%
Cn1c(CSCc2ccc(Cl)cc2)n[nH]c1=S | inactive: -4.26%
O=C(c1cccc2ccccc12)C1CCCN(C(=O)CCCn2cncn2)C1 (stereo not drawn) | inactive: 2.48%
COc1cccc(CN(C)C(=O)c2ccc(COc3ccc(Cl)cc3)cc2)c1OC | inactive: 29.4%
CCCOc1ccccc1C1NC(=O)NC(C)=C1C(=O)OCCOCC (stereo not drawn) | inactive: -7.61%
CCC(C)(C)C(=O)Nc1cc([N+](=O)[O-])ccc1Cl | inactive: 3.99%
CCCn1c2ccccc2c2nnc(SCc3[nH]c(=O)[nH]c3C(=O)CCCCC(=O)OCC)nc21 | inactive: 28.3%
CN1CCc2nc(SC(C(=O)O)c3ccccc3)c(C#N)c(-c3cccs3)c2C1 (stereo not drawn) | inactive: -8.27%
N#Cc1cccc(S(=O)(=O)NCC(=O)NCCCc2ccccc2)c1 | inactive: 7.28%
COc1ccc(N2CC(C(=O)NC3CCSC3=O)CC2=O)cc1 (stereo not drawn) | inactive: 14.6%
CC(=O)c1cn(-c2ccc(Cl)cc2)c(=O)n(Cc2ccc(Br)cc2)c1=O | inactive: -13.5%
COc1ccc(C)cc1NC(=O)c1ccc2c(SCC(=O)O)c3c(nc2c1)CCCC3 | inactive: -5.03%
COc1cccc(NC(=O)CN(C)C(=O)Cc2ccc(Cl)cc2Cl)c1 | inactive: 5.55%
Cc1cccc(C(=O)N[C@H](C(=O)OCc2cc(=O)n3c(n2)sc2ccccc23)C(C)C)c1 | inactive: -9.06%
O=c1oc2ccccc2cc1-c1nc2c(s1)CCc1ccccc1-2 | inactive: 19.9%

SMILES | growth rescue (activation)
CCOC(=O)C1(CCCc2ccccc2)CCN(C(=O)c2cc(C)nc(C)n2)CC1 | inactive: 18.6%
CC(C)CCNC(=O)CN(Cc1ccccc1Cl)C(=O)CCC(=O)Nc1ccccn1 | inactive: -1.57%
O=S(=O)(Cc1ccc(Cl)cc1)c1ncc(CO)n1Cc1ccccc1 | inactive: 7.43%
CC1CCCC(C)N1C(=O)COC(=O)c1cc(Br)ccc1Cl (stereo not drawn) | inactive: 17.7%
CC(=O)c1ccc(S(=O)(=O)N2CCN(C)CC2)cc1 | inactive: 11.1%
CCC(CC)C(=O)N(C)c1c(C)nc2c(OCc3ccccc3C)cccn12 | inactive: -13.9%
CCCS(=O)(=O)NC(=O)C1(C)CCCN(C(=O)c2c(C)noc2C)C1 (stereo not drawn) | inactive: -9.72%
COc1ccc(C(=O)O)cc1S(=O)(=O)N(C)C | inactive: -3.24%
CCCCN(C=O)c1c(CC)nc2c(OCc3cc(Cl)cc(Cl)c3)cccn12 | inactive: -11.7%
CCNC(=O)C1CCCN(Cc2cc(-c3ccccc3)on2)CC1 (stereo not drawn) | inactive: 4.09%
O=C(COc1cccnc1[N+](=O)[O-])Nc1ccc(F)cc1 | inactive: 18%
COc1cc(CCC(=O)N2CCN(c3ncccn3)CC2)cc(OC)c1OC | inactive: 6.04%
Cc1ccc(N(CC(=O)NCCc2ccccc2)C(=O)c2csnn2)cc1 | inactive: -3.46%
Cc1cccc(NC(=O)CN2C(=O)S/C(=C\c3ccc(O)c([N+](=O)[O-])c3)C2=O)c1 | inactive: -0.269%
COc1cc(C#N)ccc1OCC(=O)N1CCc2ccccc2C1 | inactive: 12.5%
CN1C(=O)N(C)c2ccc(C=O)c3cccc1c23 | inactive: 1.3%
Cc1cccc(NC2=C(NCCO)C(=O)c3ccccc3C2=O)c1 | inactive: 4.42%
CCN(CC)c1ccc(S(=O)(=O)N2CCOCC2)cc1NC(=O)Nc1ccccc1 | inactive: -3.88%
O=C(CSc1nnc2ccccn12)c1ccc(Cl)cc1 | inactive: 9.01%
O=C(O)c1cccc(Nc2nc3ccccc3nc2NS(=O)(=O)c2ccccc2)c1 | inactive: 18.4%
